Test results: the supplement of paper PMC8728848
The list shows a part of the results.

Tests used:
Assay in all cases: glycan array binding signal (z-score within array); higher = stronger binding
Conditions in all cases: glycan notation: IUPAC condensed, linker removed
[1] = target: Gal3S(b1-3)[Fuc(a1-4)]GlcNAc
Outline: (§1)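 The binding signal is a Z-score computed within each array and averaged over linkers. Arrays of the same protein sequence at different concentrations or buffers were also averaged together. Data originate from 3228 arrays in the Consortium for Functional Glycomics database, kept only where the protein sequence was available.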

Gal3S(b1-4)Glc = target: Gal3S(b1-4)Glc
Outline: as §1

Gal3S(b1-4)Glc6S = target: Gal3S(b1-4)Glc6S
Outline: as §1

Gal3S(b1-4)GlcNAc = target: Gal3S(b1-4)GlcNAc
Outline: as §1

Gal3S(b1-4)GlcNAc6S = target: Gal3S(b1-4)GlcNAc6S
Outline: as §1

[2] = target: Gal3S(b1-4)[Fuc(a1-3)]Glc
Outline: as §1

[3] = target: Gal3S(b1-4)[Fuc(a1-3)]Glc6S
Outline: as §1

Gal3S4S(b1-4)GlcNAc = target: Gal3S4S(b1-4)GlcNAc
Outline: as §1

Gal3S6S(b1-4)GlcNAc = target: Gal3S6S(b1-4)GlcNAc
Outline: as §1

Gal3S6S(b1-4)GlcNAc6S = target: Gal3S6S(b1-4)GlcNAc6S
Outline: as §1

Gal4S(b1-4)GlcNAc = target: Gal4S(b1-4)GlcNAc
Outline: as §1

Gal4S6S(b1-4)GlcNAc = target: Gal4S6S(b1-4)GlcNAc
Outline: as §1

Gal6S(b1-3)GlcNAc = target: Gal6S(b1-3)GlcNAc
Outline: as §1

Gal6S(b1-3)GlcNAc6S = target: Gal6S(b1-3)GlcNAc6S
Outline: as §1

Gal6S(b1-4)Glc = target: Gal6S(b1-4)Glc
Outline: as §1

Gal6S(b1-4)Glc6S = target: Gal6S(b1-4)Glc6S
Outline: as §1

Gal6S(b1-4)GlcNAc = target: Gal6S(b1-4)GlcNAc
Outline: as §1

Gal6S(b1-4)GlcNAc6S = target: Gal6S(b1-4)GlcNAc6S
Outline: as §1

GalNAc(a1-3)Gal = target: GalNAc(a1-3)Gal
Outline: as §1

GalNAc(a1-3)GalNAc = target: GalNAc(a1-3)GalNAc
Outline: as §1

[4] = target: GalNAc(a1-3)GalNAc(b1-3)Gal(a1-4)Gal(b1-4)Glc
Outline: as §1

[5] = target: GalNAc(a1-3)GalNAc(b1-3)Gal(a1-4)Gal(b1-4)GlcNAc
Outline: as §1

GalNAc(b1-3)Gal = target: GalNAc(b1-3)Gal
Outline: as §1

[6] = target: GalNAc(b1-3)Gal(a1-4)Gal(b1-4)GlcNAc
Outline: as §1

[7] = target: GalNAc(b1-3)Gal(a1-4)Gal(b1-4)GlcNAc(b1-3)Gal(b1-4)Glc
Outline: as §1

[8] = target: GalNAc(b1-3)Gal(a1-6)Gal(b1-4)Glc
Outline: as §1

GalNAc(b1-3)GalNAc = target: GalNAc(b1-3)GalNAc
Outline: as §1

GalNAc(b1-4)Gal(b1-4)Glc = target: GalNAc(b1-4)Gal(b1-4)Glc
Outline: as §1

GalNAc(b1-4)GlcNAc = target: GalNAc(b1-4)GlcNAc
Outline: as §1

[9] = target: GalNAc(b1-4)GlcNAc(b1-2)Man(a1-3)[GalNAc(b1-4)GlcNAc(b1-2)Man(a1-6)]Man(b1-4)GlcNAc(b1-4)GlcNAc
Outline: as §1

GalNAc(b1-6)GalNAc = target: GalNAc(b1-6)GalNAc
Outline: as §1

Glc(a1-4)Glc = target: Glc(a1-4)Glc
Outline: as §1

[10] = target: Glc(a1-4)Glc(a1-4)Glc(a1-4)Glc
Outline: as §1

Glc(a1-6)Glc(a1-6)Glc = target: Glc(a1-6)Glc(a1-6)Glc
Outline: as §1

[11] = target: Glc(a1-6)Glc(a1-6)Glc(a1-6)Glc
Outline: as §1

Glc(b1-4)Glc = target: Glc(b1-4)Glc
Outline: as §1

Glc(b1-6)Glc = target: Glc(b1-6)Glc
Outline: as §1

GlcA(b1-3)Gal = target: GlcA(b1-3)Gal
Outline: as §1

GlcA(b1-3)GlcNAc = target: GlcA(b1-3)GlcNAc
Outline: as §1

GlcA(b1-6)Gal = target: GlcA(b1-6)Gal
Outline: as §1

[12] = target: GlcNAc(a1-3)Gal(b1-4)GlcNAc
Outline: as §1

[13] = target: GlcNAc(a1-4)Gal(b1-3)GlcNAc
Outline: as §1

[14] = target: GlcNAc(a1-4)Gal(b1-4)GalNAc
Outline: as §1

[15] = target: GlcNAc(a1-4)Gal(b1-4)GlcNAc
Outline: as §1

[16] = target: GlcNAc(a1-4)Gal(b1-4)GlcNAc(b1-3)Gal(b1-4)Glc
Outline: as §1

[17] = target: GlcNAc(a1-4)Gal(b1-4)GlcNAc(b1-3)Gal(b1-4)GlcNAc
Outline: as §1

[18] = target: GlcNAc(a1-4)Gal(b1-4)GlcNAc(b1-3)Gal(b1-4)GlcNAc(b1-3)Gal(b1-4)GlcNAc
Outline: as §1

[19] = target: GlcNAc(a1-4)Gal(b1-4)GlcNAc(b1-3)Gal(b1-4)[Fuc(a1-3)]GlcNAc(b1-3)Gal(b1-4)[Fuc(a1-3)]GlcNAc
Outline: as §1

[20] = target: GlcNAc(a1-6)Gal(b1-4)GlcNAc
Outline: as §1

[21] = target: GlcNAc(b1-2)Gal(b1-3)GalNAc
Outline: as §1

[22] = target: GlcNAc(b1-2)Man(a1-3)[GlcNAc(b1-2)Man(a1-6)]Man(b1-4)GlcNAc(b1-4)GlcNAc
Outline: as §1

[23] = target: GlcNAc(b1-2)Man(a1-3)[GlcNAc(b1-2)Man(a1-6)]Man(b1-4)GlcNAc(b1-4)[Fuc(a1-6)]GlcNAc
Outline: as §1

[24] = target: GlcNAc(b1-2)Man(a1-3)[GlcNAc(b1-4)][GlcNAc(b1-2)Man(a1-6)]Man(b1-4)GlcNAc(b1-4)GlcNAc
Outline: as §1

[25] = target: GlcNAc(b1-2)[GlcNAc(b1-4)]Man(a1-3)[GlcNAc(b1-2)Man(a1-6)]Man(b1-4)GlcNAc(b1-4)GlcNAc
Outline: as §1

[26] = target: GlcNAc(b1-2)[GlcNAc(b1-4)]Man(a1-3)[GlcNAc(b1-4)][GlcNAc(b1-2)Man(a1-6)]Man(b1-4)GlcNAc(b1-4)GlcNAc
Outline: as §1

[27] = target: GlcNAc(b1-2)[GlcNAc(b1-4)]Man(a1-3)[GlcNAc(b1-4)][GlcNAc(b1-2)[GlcNAc(b1-6)]Man(a1-6)]Man(b1-4)GlcNAc(b1-4)GlcNAc
Outline: as §1

[28] = target: GlcNAc(b1-2)[GlcNAc(b1-6)]Man(a1-6)[GlcNAc(b1-2)Man(a1-3)]Man(b1-4)GlcNAc(b1-4)GlcNAc
Outline: as §1

[29] = target: GlcNAc(b1-2)[GlcNAc(b1-6)]Man(a1-6)[GlcNAc(b1-2)Man(a1-3)][GlcNAc(b1-4)]Man(b1-4)GlcNAc(b1-4)GlcNAc
Outline: as §1

GlcNAc(b1-3)Gal = target: GlcNAc(b1-3)Gal
Outline: as §1

[30] = target: GlcNAc(b1-3)Gal(b1-3)GalNAc
Outline: as §1

GlcNAc(b1-3)Gal(b1-4)Glc = target: GlcNAc(b1-3)Gal(b1-4)Glc
Outline: as §1

[31] = target: GlcNAc(b1-3)Gal(b1-4)GlcNAc
Outline: as §1

[32] = target: GlcNAc(b1-3)Gal(b1-4)GlcNAc(b1-3)Gal(b1-4)GlcNAc
Outline: as §1

GlcNAc(b1-3)GalNAc = target: GlcNAc(b1-3)GalNAc
Outline: as §1

GlcNAc(b1-3)Man = target: GlcNAc(b1-3)Man
Outline: as §1

[33] = target: GlcNAc(b1-3)[GlcNAc(b1-4)][GlcNAc(b1-6)]GlcNAc
Outline: as §1

[34] = target: GlcNAc(b1-3)[GlcNAc(b1-6)]Gal(b1-4)GlcNAc
Outline: as §1

[35] = target: GlcNAc(b1-3)[GlcNAc(b1-6)]GalNAc
Outline: as §1

[36] = target: GlcNAc(b1-4)Gal(b1-4)GlcNAc
Outline: as §1

GlcNAc(b1-4)GlcNAc = target: GlcNAc(b1-4)GlcNAc
Outline: as §1

[37] = target: GlcNAc(b1-4)GlcNAc(b1-4)GlcNAc
Outline: as §1

[38] = target: GlcNAc(b1-4)GlcNAc(b1-4)GlcNAc(b1-4)GlcNAc(b1-4)GlcNAc
Outline: as §1

[39] = target: GlcNAc(b1-4)GlcNAc(b1-4)GlcNAc(b1-4)GlcNAc(b1-4)GlcNAc(b1-4)GlcNAc
Outline: as §1

[40] = target: GlcNAc(b1-4)[GlcNAc(b1-6)]GalNAc
Outline: as §1

[41] = target: GlcNAc(b1-6)Gal(b1-4)GlcNAc
Outline: as §1

Measured: glycan array binding signal (z-score)

B1: SCA (Schizophyllum commune) (protein)
chain: MGIDQGVYLITNAGSGTAATLKDGYVKGWERIKGKEQLNQLWFVKSVKTSASDPGYAAFNLATNKVLDLEKGLADRGTPILGWDYHEGDNQHWVIKKQADGKYYKIQSVKTQTFVDLNNGGKDNGTKIQGWVGSWDETNSHQRWVFNQFSATGSRIKSILDTHPKIHGKVIVEWPDRIYFTPDQYIFEAIWAKTGLADIKPRDPLFQSEAYEKVFKGWVVSRAQEIIKVDGFDILVGSLSLVEKSTQKIKVLDVSVRTSDDKSPDLSQIVFFDPESGRTLVDIPEGYEVNSVII
-0.154: Gal6S(b1-4)Glc6S | [19]
-0.158: Gal6S(b1-3)GlcNAc | Gal6S(b1-3)GlcNAc6S | Gal6S(b1-4)GlcNAc | GlcA(b1-6)Gal | [15] | GlcNAc(b1-3)Gal(b1-4)Glc
-0.163: Gal4S(b1-4)GlcNAc | [10] | [13] | GlcNAc(b1-3)Man | [36]
-0.16: [1] | [2] | Gal3S4S(b1-4)GlcNAc | GalNAc(b1-3)Gal | Glc(a1-4)Glc | Glc(b1-4)Glc | [21] | [23] | [25]
-0.155: [17]
-0.159: Gal3S(b1-4)Glc6S | [14] | [20] | [26] | GlcNAc(b1-3)GalNAc
-0.149: GalNAc(a1-3)GalNAc
-0.153: [3]
-0.151: [16]
-0.156: Gal3S6S(b1-4)GlcNAc6S | GalNAc(b1-3)GalNAc | GalNAc(b1-4)GlcNAc | GlcA(b1-3)GlcNAc
-0.139: [28]
-0.071: [7]
-0.164: [12] | [31]
-0.162: Gal3S(b1-4)Glc | Gal3S(b1-4)GlcNAc | Gal4S6S(b1-4)GlcNAc | [4] | GalNAc(b1-4)Gal(b1-4)Glc | GalNAc(b1-6)GalNAc | Glc(b1-6)Glc | [18] | [22] | [24] | [29] | GlcNAc(b1-3)Gal | [30] | [32] | [34] | [38]
-0.157: [8]
8.44: GlcA(b1-3)Gal
-0.126: [6]
-0.116: GalNAc(a1-3)Gal
-0.161: all other assays above
